The other results are listed elsewhere or left out.
System: PfHDP1 homeodomain (GST-tagged)
Assay: gcPBM binding intensity (ln(normalized median fluorescence intensity)); higher = stronger DNA binding
Method in brief: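 Binding intensity is the highest Masliner-normalised natural-log median intensity over replicate spots in either probe orientation. To obtain it, GST-tagged P. falciparum DNA-binding domains made in E. coli were incubated for 1 h on an Agilent 4 × 180k array of primer-extended double-stranded 36-bp intergenic genomic probes plus negative controls. Detection used Alexa488 anti-GST antibody with scanning at 488 nm.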

Going from “ATAATATATATATATATATTATCAAATATATATATA [GTGCAC_negctrl_site346]” to “AAAAAATAATAATAAAATGAATAGATATGTATTTAT [TGCATGCA_negctrl_site210]”, the “gcPBM binding intensity (ln)” value falls from 8.11 to 6.32.

First: AATAATATATATTGTACACACAAAATGGGAAAAAAA [CACACA_site5100]
Second: TTATAAAAAAAAAAAAAAAATATATATATATATATA [XGTACX_negctrl_site592]
The “gcPBM binding intensity (ln)” value of the first is lower: 7.12 for the first, 9.25 for the second.

First: ACAAAATGTAAATAAACACACATATATATATATATA [CACACA_site1281]
Second: AACATATTATCTTGTGAAAATAATATAAGTCACATT [TGCATGCA_negctrl_site339]
The “gcPBM binding intensity (ln)” value of the first is higher: 9.44 for the first, 5.94 for the second.

First: AGCAGAGTTACAATTTGTACGTAATTGATATAGATA [XGTACX_site4051]
Second: ATATATATATATATTTGTACAGAAAATATTTTAATA [XGTACX_site3706]
The “gcPBM binding intensity (ln)” value of the first is lower: 6.57 for the first, 8.92 for the second.

Compared with “AACTAAACAAAAGTTACACACATCATACGATATTAT [CACACA_site3180]”, “ATAATTTATATTCAGAAACACACGAAAAAAAAAAAT [CACACA_site1296]” is higher in “gcPBM binding intensity (ln)” value: 6.35 for the first, 6.81 for the second.

Compared with “ATGTTAAGAATAATTAGTACTTACATATGTATAATA [XGTACX_site4419]”, “ACCATATAATTTTTTTGTACATAATGATTTTTTTTT [XGTACX_site1104]” is higher in “gcPBM binding intensity (ln)” value: 6.58 for the first, 6.74 for the second.

First: TATATTATATACGTCTGTACACAAATGAGAGGTAAA [XGTACX_site5538]
Second: TACAATGTGGATAATTGTACAAAACCGATAAGAGGG [XGTACX_site6453]
The “gcPBM binding intensity (ln)” value of the first is lower: 7.05 for the first, 7.57 for the second.

Compared with “TTATATACCCTAATATGTTTTATTATTATTATATAT [TGCATGCA_negctrl_site6]”, “TATATTCTACAAGAATTATGAATTGTCAGACCAAAT [CACACA_negctrl_site1101]” is lower in “gcPBM binding intensity (ln)” value: 6.3 for the first, 5.99 for the second.

First: TTTATTTTCATATGAACACACATATATATATTATAA [CACACA_site2369]
Second: CTGTTTTTGTTTTAAAGTACATTGTTCAATATACAT [XGTACX_site5288]
The “gcPBM binding intensity (ln)” value of the first is higher: 7.23 for the first, 6.74 for the second.

First: TGTTCTGAACGGTTCATGCACTTTTTTTTGTTAATT
Second: ATATAAATAATATAAATACACACTAAAAAAAATATA [CACACA_site542]
The “gcPBM binding intensity (ln)” value of the first is higher: 7.02 for the first, 6.74 for the second.

Compared with “AAAAAATAATTGAAGTGTACGTACAATGATTTTACT [XGTACX_site7663]”, “GTATTCTACAGACACATACACACATATATATATATA [CACACA_site3427]” is higher in “gcPBM binding intensity (ln)” value: 6.38 for the first, 9.34 for the second.

Going from “AAGAAAAACTTTACGTGTACCAAACATCCTGCCGAC [XGTACX_site4895]” to “TAAACCTTAAAATATTTCTCATGTTTAACTTATATT [GTGCAC_negctrl_site233]”, the “gcPBM binding intensity (ln)” value rises from 6.5 to 6.68.
